The results in this text go back to patent US20250381289A1 (Genmab, published 2025).

Assay [1] addresses T1, human HER4 recombinant protein (human, UniProt Q15303 26-649, limits assumed).
T1 sequence (looked up): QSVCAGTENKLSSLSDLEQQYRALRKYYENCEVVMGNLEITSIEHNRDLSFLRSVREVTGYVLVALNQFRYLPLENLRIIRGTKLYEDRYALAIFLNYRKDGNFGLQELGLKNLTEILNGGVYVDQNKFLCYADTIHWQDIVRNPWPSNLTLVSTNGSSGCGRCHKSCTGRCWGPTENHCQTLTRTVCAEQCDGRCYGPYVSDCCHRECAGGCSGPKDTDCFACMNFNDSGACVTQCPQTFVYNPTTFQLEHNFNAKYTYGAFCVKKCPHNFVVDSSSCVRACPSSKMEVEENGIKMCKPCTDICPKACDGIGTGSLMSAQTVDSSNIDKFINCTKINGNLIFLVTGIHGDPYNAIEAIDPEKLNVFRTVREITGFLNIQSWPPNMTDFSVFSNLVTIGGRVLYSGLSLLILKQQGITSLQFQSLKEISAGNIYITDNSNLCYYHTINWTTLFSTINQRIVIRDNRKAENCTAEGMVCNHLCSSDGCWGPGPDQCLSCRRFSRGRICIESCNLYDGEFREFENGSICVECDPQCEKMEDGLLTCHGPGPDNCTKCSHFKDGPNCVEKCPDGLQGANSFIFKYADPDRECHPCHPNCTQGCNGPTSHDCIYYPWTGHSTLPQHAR
In words: ELISA, coated human HER4, anti-human Fc-HRP.

Assay [2] concerns the target T2, human Sema3A recombinant protein (human, UniProt Q14563 21-771, limits assumed).
T2 sequence (looked up): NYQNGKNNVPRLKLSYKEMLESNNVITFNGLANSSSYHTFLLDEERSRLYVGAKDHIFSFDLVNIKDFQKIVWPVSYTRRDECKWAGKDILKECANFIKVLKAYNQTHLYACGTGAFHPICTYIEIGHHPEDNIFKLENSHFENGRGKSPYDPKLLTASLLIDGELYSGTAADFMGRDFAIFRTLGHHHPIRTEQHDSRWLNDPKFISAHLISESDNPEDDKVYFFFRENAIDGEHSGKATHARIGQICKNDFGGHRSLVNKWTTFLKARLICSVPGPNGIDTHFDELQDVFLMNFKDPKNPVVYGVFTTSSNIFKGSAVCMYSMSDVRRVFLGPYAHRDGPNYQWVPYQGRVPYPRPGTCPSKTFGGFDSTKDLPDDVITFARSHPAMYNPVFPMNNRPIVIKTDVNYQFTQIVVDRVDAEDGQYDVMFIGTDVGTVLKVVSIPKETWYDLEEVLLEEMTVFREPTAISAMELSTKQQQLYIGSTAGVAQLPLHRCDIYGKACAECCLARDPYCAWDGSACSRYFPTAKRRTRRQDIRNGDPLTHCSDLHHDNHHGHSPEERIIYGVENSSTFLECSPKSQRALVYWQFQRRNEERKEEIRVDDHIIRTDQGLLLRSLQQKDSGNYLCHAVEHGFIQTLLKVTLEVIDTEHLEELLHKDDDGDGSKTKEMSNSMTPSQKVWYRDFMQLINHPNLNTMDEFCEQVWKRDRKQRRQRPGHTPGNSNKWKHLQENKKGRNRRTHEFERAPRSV
Kind of assay: ELISA, coated human Sema3A, anti-human Fc-HRP.

Assay [3] concerns the target T3, EGFR on EGFR and cMET co-expressed tumor cell lines (UniProt P00533).
T3 construct: whole, on cells
Kind of assay: flow cytometry, SW620 cells (named among the EGFR and cMET co-expressing lines; both arms contribute).

The target in assay [4] is T4, cMET on EGFR and cMET co-expressed tumor cell lines (UniProt P08581).
T4 construct: whole, on cells
T4 sequence (P08581 25-1390 limits assumed): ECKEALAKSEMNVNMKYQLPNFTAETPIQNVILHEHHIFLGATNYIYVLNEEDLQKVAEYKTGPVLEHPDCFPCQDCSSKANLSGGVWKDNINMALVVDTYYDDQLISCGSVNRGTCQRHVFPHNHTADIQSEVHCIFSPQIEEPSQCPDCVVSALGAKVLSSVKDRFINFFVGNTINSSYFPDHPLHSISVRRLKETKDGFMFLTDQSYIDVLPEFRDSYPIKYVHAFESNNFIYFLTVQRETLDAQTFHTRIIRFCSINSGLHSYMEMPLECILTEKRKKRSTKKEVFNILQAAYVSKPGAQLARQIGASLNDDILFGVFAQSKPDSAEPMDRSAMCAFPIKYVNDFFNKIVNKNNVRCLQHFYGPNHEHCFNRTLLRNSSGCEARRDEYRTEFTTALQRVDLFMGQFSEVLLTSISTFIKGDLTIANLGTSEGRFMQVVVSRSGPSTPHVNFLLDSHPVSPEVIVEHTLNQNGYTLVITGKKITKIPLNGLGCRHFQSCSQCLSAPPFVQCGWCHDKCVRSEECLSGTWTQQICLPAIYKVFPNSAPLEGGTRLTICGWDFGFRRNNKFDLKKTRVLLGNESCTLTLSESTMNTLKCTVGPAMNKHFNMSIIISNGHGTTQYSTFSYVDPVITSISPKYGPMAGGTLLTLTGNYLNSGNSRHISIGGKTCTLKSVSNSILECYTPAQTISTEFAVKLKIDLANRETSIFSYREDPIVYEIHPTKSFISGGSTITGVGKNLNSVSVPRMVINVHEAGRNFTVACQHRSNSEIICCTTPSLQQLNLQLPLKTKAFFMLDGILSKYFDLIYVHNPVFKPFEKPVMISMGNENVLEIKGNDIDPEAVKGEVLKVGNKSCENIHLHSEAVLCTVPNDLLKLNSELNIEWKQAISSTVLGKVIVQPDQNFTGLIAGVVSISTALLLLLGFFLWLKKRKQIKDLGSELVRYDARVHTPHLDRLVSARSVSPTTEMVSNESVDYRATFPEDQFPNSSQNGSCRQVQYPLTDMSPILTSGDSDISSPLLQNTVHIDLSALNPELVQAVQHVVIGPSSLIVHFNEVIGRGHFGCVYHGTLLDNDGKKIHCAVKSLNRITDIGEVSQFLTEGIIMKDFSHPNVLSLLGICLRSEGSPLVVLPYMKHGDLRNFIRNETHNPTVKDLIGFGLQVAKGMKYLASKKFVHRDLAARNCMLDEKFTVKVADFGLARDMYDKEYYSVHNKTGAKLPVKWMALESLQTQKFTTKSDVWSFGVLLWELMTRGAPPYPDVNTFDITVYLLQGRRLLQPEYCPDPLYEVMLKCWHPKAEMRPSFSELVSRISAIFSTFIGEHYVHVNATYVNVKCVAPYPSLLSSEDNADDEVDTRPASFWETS
The description is as above.

For assay [5], the target named is T5, Mouse EGFR extracellular domain (ECD) linked to His tag (mouse, UniProt Q01279 25-647).
T5 construct: extracellular domain; not shown: His tag
In words: BLI (Octet RED), antibody on anti-human IgG Fc biosensors, ECD-His in solution.

For assay [6], the target named is T2, human Sema3A recombinant protein. In words: ELISA, plate coated with 100 ng/well human Sema3A recombinant protein, HRP anti-human Fc, OD450.
For assay [7], the target named is T3, EGFR on EGFR and cMET co-expressed …. Kind of assay: flow cytometry on NCI-H292 cells (co-express EGFR and cMET), PE anti-human Fc; signal of the whole bispecific, not resolved by arm.
For assay [8], the target named is T4, cMET on EGFR and cMET co-expressed …. Described as above.

B1: Bsab 67 (bispecific antibody, human IgG1, kappa, L234A L235A)
chain 1: AIQLTQSPESLSASVGDRVTITCRASQDISSALVWYQQKPGKAPKLLIYDASSLESGVPDRFSGSESGTDFTLTISSLQPEDFATYYCQQFNSYPLTFGGGTKVEIKRTVAAPSVFIFPPSDEQLKSGTASVVCLLNNFYPREAKVQWKVDNALQSGNSQESVTEQDSKDSTYSLSSTLTLSKADYEKHKVYACEVTHQGLSSPVTKSFNRGECGGGGSGGGGSGGGGSGGGGSGGGGSGGGGSGGGGSGGGGSQVQLVESGGGVVQPGRSLRLSCAASGFTFSTYGMHWVRQAPGQGLEWVAVIWDDGSYKYYGDSVKGRFTISRDNSKNTLYLQMNSLRAEDTAVYYCARDGITMVRGVMKDYFDYWGQGTLVTVSSASTKGPSVFPLAPSSKSTSGGTAALGCLVKDYFPEPVTVSWNSGALTSGVHTFPAVLQSSGLYSLSSVVTVPSSSLGTQTYICNVNHKPSNTKVDKKV[omitted - human IgG1 Fc with L234A L235A Y349C T366W (EU numbers)]
chain 2: DIVMTQSPDSLAVSLGERATINCKSSESVDSYANSFLHWYQQKPGQPPKLLIYRASTRESGVPDRFSGSGSGTDFTLTISSLQAEDVAVYYCQQSKEDPLTFGGGTKVEIKRTVAAPSVFIFPPSDEQLKSGTASVVCLLNNFYPREAKVQWKVDNALQSGNSQESVTEQDSKDSTYSLSSTLTLSKADYEKHKVYACEVTHQGLSSPVTKSFNRGECGGGGSGGGGSGGGGSGGGGSGGGGSGGGGSGGGGSGGGGSQVQLVQSGAEVKKPGASVKVSCKASGYIFTAYTMHWVRQAPGQGLEWMGWIKPNNGLANYAQKFQGRVTMTRDTSISTAYMELSRLRSDDTAVYYCARSEITTEFDYWGQGTLVTVSSASTKGPSVFPLAPSSKSTSGGTAALGCLVKDYFPEPVTVSWNSGALTSGVHTFPAVLQSSGLYSLSSVVTVPSSSLGTQTYICNVNHKPSNTKVDKKVEPKSCDKTHTCPPCPAPEAAGGPSVFLFPPKPKDTLMISRTPEVTCVVVDVSHEDPEVKFNWYVDGVEVHNAKTKPREEQYNSTYRVVSVLTVLHQDWLNGKEYKCKVSNKALPAPIEKTISKAKGQPREPQVYTLPPCRDELTKNQVSLSCAVKGFYPSDIAVEWESNGQPENNYKTTPPVLDSDGSFFLVSKLTVDKSRWQQGNVFSCSVMHEALHNHYTQKSLSLSPGK
notes: two chains, one knob and one hole; also called Basb 67
As to B1, the values for the binding result in assay [1] and in assay [2] were “no binding (tested: about 130 nM)” and “no binding (tested: about 120 nM)”, respectively. Besides, the “EC50 (read off the curve)” value in assay [3] and in assay [4] was approximately 0.6 nM throughout.

B2: Bsab 67-LD038 (5) (bispecific antibody, human IgG1, kappa, L234A L235A)
chain 1: B1 chain 1
chain 2: B1 chain 2
modifications: LD038 drug-linker coupled after TCEP reduction; DAR 5.1 by LC-MS; sites not given
notes: also called Basb 67-LD038 (5)
B2: the figures for the binding result in assay [5] and in assay [6] were “no binding (tested: 100 nM (highest concentration tested))” and “no binding”, respectively. Also, the “EC50 (read off the curve)” value in assay [7] and in assay [8] was approximately 3 nM throughout.
